This note sets out measurements from article PMC5730846.

By UniProt entry, the sequences of proteins in these tests, tags left out.
UniProt P08238: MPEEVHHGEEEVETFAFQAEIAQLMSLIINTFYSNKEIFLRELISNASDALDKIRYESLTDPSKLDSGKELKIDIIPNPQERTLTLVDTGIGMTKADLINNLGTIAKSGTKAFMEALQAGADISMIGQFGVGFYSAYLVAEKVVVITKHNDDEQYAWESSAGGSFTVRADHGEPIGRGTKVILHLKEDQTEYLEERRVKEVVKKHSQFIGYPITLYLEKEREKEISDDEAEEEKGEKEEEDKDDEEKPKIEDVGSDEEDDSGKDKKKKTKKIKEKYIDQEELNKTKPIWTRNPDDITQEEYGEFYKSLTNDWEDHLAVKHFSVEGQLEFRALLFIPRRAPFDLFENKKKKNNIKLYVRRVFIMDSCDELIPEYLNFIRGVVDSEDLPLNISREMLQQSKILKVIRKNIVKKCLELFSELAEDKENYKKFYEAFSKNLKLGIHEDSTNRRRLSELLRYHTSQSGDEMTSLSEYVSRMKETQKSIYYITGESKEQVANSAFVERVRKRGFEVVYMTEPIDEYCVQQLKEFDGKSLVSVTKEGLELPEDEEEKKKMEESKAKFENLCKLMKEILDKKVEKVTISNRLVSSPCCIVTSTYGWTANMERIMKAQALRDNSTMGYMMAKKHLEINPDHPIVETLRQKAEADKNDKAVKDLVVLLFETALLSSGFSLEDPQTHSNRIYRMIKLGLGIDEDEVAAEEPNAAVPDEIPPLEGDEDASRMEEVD
UniProt P49815: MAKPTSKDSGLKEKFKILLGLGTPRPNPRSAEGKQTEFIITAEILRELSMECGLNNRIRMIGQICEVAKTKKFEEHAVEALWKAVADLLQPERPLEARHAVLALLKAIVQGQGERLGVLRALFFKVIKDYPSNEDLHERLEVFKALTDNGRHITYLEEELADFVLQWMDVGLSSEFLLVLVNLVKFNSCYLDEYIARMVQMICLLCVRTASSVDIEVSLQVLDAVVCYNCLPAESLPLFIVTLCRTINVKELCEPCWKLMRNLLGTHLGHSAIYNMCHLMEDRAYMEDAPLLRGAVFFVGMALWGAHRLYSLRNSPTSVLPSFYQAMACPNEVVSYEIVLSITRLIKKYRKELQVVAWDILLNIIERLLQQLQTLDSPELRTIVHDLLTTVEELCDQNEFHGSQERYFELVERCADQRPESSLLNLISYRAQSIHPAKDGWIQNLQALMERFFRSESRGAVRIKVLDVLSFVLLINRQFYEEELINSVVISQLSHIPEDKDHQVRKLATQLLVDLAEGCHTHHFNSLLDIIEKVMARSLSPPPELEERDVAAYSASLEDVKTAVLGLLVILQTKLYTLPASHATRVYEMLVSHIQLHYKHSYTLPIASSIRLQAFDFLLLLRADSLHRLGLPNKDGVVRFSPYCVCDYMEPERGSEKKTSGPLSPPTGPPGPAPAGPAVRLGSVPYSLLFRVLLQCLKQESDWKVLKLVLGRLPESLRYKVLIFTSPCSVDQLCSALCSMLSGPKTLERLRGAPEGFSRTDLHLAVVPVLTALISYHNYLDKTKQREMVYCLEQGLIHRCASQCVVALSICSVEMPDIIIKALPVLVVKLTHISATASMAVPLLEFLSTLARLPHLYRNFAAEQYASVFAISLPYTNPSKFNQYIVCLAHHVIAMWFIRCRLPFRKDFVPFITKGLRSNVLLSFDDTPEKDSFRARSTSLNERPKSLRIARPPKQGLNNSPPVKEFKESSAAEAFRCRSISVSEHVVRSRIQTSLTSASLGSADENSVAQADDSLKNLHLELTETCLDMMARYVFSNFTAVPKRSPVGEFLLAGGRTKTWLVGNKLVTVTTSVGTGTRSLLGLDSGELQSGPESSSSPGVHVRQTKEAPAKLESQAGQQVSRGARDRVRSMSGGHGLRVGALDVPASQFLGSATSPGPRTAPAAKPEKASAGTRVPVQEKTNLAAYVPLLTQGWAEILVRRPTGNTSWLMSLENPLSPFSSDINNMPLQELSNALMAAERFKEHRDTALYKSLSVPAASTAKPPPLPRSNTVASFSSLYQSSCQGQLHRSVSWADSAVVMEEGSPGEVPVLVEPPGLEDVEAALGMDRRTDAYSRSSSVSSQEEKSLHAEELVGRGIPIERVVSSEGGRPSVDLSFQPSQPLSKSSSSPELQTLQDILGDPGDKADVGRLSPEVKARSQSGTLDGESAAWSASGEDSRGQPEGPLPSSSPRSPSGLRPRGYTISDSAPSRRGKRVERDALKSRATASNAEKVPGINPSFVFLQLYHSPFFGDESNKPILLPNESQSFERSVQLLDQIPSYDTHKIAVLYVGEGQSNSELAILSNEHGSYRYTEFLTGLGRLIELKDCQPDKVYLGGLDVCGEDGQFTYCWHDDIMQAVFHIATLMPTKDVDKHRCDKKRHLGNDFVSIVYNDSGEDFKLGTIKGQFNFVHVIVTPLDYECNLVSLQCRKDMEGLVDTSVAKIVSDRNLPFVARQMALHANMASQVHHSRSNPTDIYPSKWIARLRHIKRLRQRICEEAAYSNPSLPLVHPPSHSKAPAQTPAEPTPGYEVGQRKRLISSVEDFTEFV

No constants are given. Whether binding was seen depends on the method and setting. For some of these results: Binding seen in cells or lysates may run through a third protein. Some entries that bind do so weakly or less than the wild type. For some of these results: Sequences can lack the tags named with a protein.

In one assay the target is T1, Tsc1-D-FLAG (UniProt Q92574).
T1 sequence: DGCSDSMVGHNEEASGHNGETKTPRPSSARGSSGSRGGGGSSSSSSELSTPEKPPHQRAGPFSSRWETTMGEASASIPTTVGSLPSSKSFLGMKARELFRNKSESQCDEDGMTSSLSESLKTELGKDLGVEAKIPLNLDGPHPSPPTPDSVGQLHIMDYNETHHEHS
The assay can be described thus: co-IP; FLAG-tagged protein co-expressed with HA-tagged Tsc1-D in HEK293; anti-FLAG immunoprecipitation; immunoblot.

The target in a further assay is Hsp90β-FLAG (UniProt P08238). The assay can be described thus: co-IP; FLAG-tagged protein transiently expressed in HEK293, immunoprecipitated with anti-FLAG M2 affinity gel; endogenous partners by immunoblot; empty vector control. In general terms: In western blotting, separated proteins are transferred to a membrane and probed.
For assay [1], the target named is purified Tsc2 (UniProt P49815). The assay can be described thus: co-IP; Tsc1:Tsc2 complex on protein G agarose (anti-Tsc2) treated with GB for 1 h at 4°C; both purified.
In assay [2] the target is purified Tsc2 (UniProt P49815). The assay can be described thus: co-IP; purified Tsc2 bound to protein G agarose by anti-Tsc2 antibody, incubated with 10 ng pure Tsc1; immunoblot; both purified.
The target in assay [3] is T2, Tsc1 (hamartin) (human (endogenous in HEK293)) (UniProt Q92574).
T2 sequence: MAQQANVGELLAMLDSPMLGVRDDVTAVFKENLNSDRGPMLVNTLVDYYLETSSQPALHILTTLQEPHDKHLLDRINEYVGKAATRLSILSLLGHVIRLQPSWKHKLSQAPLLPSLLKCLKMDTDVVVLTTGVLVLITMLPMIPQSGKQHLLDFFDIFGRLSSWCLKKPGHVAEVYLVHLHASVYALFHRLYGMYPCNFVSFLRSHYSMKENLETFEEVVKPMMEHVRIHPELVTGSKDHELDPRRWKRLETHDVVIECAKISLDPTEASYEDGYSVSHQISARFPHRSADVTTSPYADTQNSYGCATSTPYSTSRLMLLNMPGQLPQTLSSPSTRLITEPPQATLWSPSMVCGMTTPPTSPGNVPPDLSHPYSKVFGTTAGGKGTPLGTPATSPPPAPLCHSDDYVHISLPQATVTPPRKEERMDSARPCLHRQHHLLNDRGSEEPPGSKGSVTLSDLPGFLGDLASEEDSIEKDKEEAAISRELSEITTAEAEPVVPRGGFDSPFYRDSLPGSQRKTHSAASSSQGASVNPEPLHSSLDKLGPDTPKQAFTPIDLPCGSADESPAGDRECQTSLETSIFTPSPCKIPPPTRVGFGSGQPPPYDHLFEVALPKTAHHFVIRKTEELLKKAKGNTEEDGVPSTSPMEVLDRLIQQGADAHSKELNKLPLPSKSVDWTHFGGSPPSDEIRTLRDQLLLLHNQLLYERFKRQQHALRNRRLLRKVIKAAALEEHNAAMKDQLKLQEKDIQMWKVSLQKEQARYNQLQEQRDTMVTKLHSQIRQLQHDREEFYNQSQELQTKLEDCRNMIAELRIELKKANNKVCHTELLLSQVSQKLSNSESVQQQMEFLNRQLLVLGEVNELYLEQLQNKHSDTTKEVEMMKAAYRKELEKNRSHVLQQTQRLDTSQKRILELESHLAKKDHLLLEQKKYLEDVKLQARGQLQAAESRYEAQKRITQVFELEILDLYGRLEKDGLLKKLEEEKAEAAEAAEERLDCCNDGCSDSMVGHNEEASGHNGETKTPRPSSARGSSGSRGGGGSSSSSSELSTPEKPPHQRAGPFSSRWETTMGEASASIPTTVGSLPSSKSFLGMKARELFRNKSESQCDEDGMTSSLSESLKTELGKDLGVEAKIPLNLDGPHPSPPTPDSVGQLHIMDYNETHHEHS
The assay can be described thus: co-IP; endogenous Tsc1 immunoprecipitated from HEK293 lysate with anti-Tsc1 antibody (IgG control); immunoblot.

The target in assay [4] is Tsc2 (tuberin) (human (endogenous in HEK293)) (UniProt P49815). The assay is described as follows: co-IP; endogenous Tsc2 immunoprecipitated from HEK293 lysate with anti-Tsc2 antibody (IgG control); immunoblot.

B1: Tsc1-D-HA (domain or fragment, UniProt Q92574 998-1164)
chain: T1 sequence
As to B1, the binding result with Tsc1-D-FLAG was “binds”.

B2: Tsc1 (hamartin) (protein, UniProt Q92574 1-1164)
chain: T2 sequence
Consider B2, for which, in the assay with Hsp90β-FLAG, the binding result is “binds”.

B3: pure Tsc1 (protein, UniProt Q92574 1-1164)
chain: T2 sequence
With B3, the binding result in the assay with purified Tsc2 [1] and with purified Tsc2 [2] was “binds” throughout.

B4: p23 (protein, UniProt Q15185 1-160)
chain: MQPASAKWYDRRDYVFIEFCVEDSKDVNVNFEKSKLTFSCLGGSDNFKHLNEIDLFHCIDPNDSKHKRTDRSILCCLRKGESGQSWPRLTKERAKLNWLSVDFNNWKDWEDDSDEDMSNFDRFSEMMNNMGGDEDVDLPEVDGADDDSQDSDDEKMPDLE
In the case of B4, the binding entry in assay [3] is given as “no binding”; in assay [4], “binds”.

B5: PP5 (protein, UniProt P53041 1-499)
chain: MAMAEGERTECAEPPRDEPPADGALKRAEELKTQANDYFKAKDYENAIKFYSQAIELNPSNAIYYGNRSLAYLRTECYGYALGDATRAIELDKKYIKGYYRRAASNMALGKFRAALRDYETVVKVKPHDKDAKMKYQECNKIVKQKAFERAIAGDEHKRSVVDSLDIESMTIEDEYSGPKLEDGKVTISFMKELMQWYKDQKKLHRKCAYQILVQVKEVLSKLSTLVETTLKETEKITVCGDTHGQFYDLLNIFELNGLPSETNPYIFNGDFVDRGSFSVEVILTLFGFKLLYPDHFHLLRGNHETDNMNQIYGFEGEVKAKYTAQMYELFSEVFEWLPLAQCINGKVLIMHGGLFSEDGVTLDDIRKIERNRQPPDSGPMCDLLWSDPQPQNGRSISKRGVSCQFGPDVTKAFLEENNLDYIIRSHEVKAEGYEVAHGGRCVTVFSAPNYCDQMGNKASYIHLQGSDLRPQFHQFTAVPHPNVKPMAYANTLLQLGMM
For B5, the binding result in assay [3] and in assay [4] was “binds” in each case.

B6: Cdc37^p50 (protein, UniProt Q16543 1-378)
chain: MVDYSVWDHIEVSDDEDETHPNIDTASLFRWRHQARVERMEQFQKEKEELDRGCRECKRKVAECQRKLKELEVAEGGKAELERLQAEAQQLRKEERSWEQKLEEMRKKEKSMPWNVDTLSKDGFSKSMVNTKPEKTEEDSEEVREQKHKTFVEKYEKQIKHFGMLRRWDDSQKYLSDNVHLVCEETANYLVIWCIDLEVEEKCALMEQVAHQTIVMQFILELAKSLKVDPRACFRQFFTKIKTADRQYMEGFNDELEAFKERVRGRAKLRIEKAMKEYEEEERKKRLGPGGLDPVEVYESLPEELQKCFDVKDVQMLQDAISKMDPTDAKYHMQRCIDSGLWVPNSKASEAKEGEEAGPGDPLLEAVPKTGDEKDVSV
As for B6, the binding result in assay [3] and in assay [4] was “binds” each time.
